PubChem BioAssay AID504466 (National Center for Advancing Translational Sciences (NCATS), 2011)
Among all 330,000 compounds or so, about 4,200 (1.3%) were called active. The inconclusive results got no clear call from the source; some entries with a clear call stand among them for comparison. Calls follow the shape of the dose curve; as a rule, active = well fitted activation curve with a large enough effect; inconclusive = small, poorly fitted or top-dose-only effect; inactive = no such curve, though single readings can be large or run the other way. Potencies beside an inconclusive call are fits to weak or partial responses and may not hold up.

Assay: qHTS screen for small molecules that induce genotoxicity in human embryonic kidney (HEK293T) cells expressing luciferase-tagged ELG1; also: nearly all actives have a fitted effect of over 60% in size; as to activity change, positive = activation: % of control where 0% means no effect
Details: HEK293T ELG1-luciferase reporter, luminescence, 16 h; series mostly up to 46 µM; activity change, positive = activation: at the top concentration
In short: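 DMSO vehicle served as control against compound-treated ELG1-luciferase HEK293T cells; exposure lasted 16 hr at 37 °C and 5% CO2, followed by ONE-Glo luminescence detection after 30 min.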
Potency is read from the fitted curve at half-maximal effect; tags tell the direction and shape of the fitted curve.

**Q.** For CCCCCCOc1ccc(/C(N)=N/O)cc1, which Potency is on record?
**A.** inconclusive: 4.11 µM [activator, single point]

**Q.** For CN(C)C(/C=C/Nc1cccc([N+](=O)[O-])c1)=C(C#N)C#N, which “activity change, positive = activation” value is on record?
**A.** inactive: 2.21%

**Q.** With Cn1nccc1C(=O)Nc1ccccc1C(=O)O as the compound, how does the Potency read?
**A.** inconclusive: 10.3 µM [activator, partial curve, poor fit]

**Q.** Which “activity change, positive = activation” value does the source give for COc1ccccc1COc1ccc2c(C)c(CCC(=O)O)c(=O)oc2c1C here?
**A.** inactive: 4.63%

**Q.** Which Potency does the source give for Nc1[nH]n(-c2ccccc2)c(=O)c1N=Nc1ccccc1[N+](=O)[O-] here?
**A.** active: 3.16 µM

**Q.** Which Potency does the source give for CC(C)CC(=O)Nc1ncnc2c1C(=O)CC(C)(C)C2 here?
**A.** inconclusive: 20.6 µM [activator, partial curve]

**Q.** With COc1cccc(-c2nc(N3CCN(C)CC3)c3ccccc3n2)c1O as the compound, how does the Potency read?
**A.** inconclusive: 18.3 µM [activator, single point]

**Q.** For Cc1ccccc1CNC(=O)Nc1ccc(Cl)cc1, which Potency is on record?
**A.** inconclusive: 9.2 µM [activator, partial curve, poor fit]

**Q.** Which Potency does the source give for Cn1c(-c2ccc3nc(N)sc3c2)nc2cc(N)ccc21 here?
**A.** inconclusive: 12.6 µM [activator, single point]

**Q.** For N#Cc1ccccc1OCC(=O)NC(=O)NC1CCS(=O)(=O)C1 (configuration not stated), which Potency is on record?
**A.** inconclusive: 32.6 µM [activator, partial curve, poor fit]

**Q.** With Cc1ccc2nc(-c3ccc(NC(=O)C4CCCO4)cc3)[nH]c2c1 (configuration not stated) as the compound, how does the Potency read?
**A.** inconclusive: 0.355 µM [activator, full curve, poor fit]

**Q.** With COC(=O)c1cc(C(C)=O)n2ccccc12 as the compound, how does the Potency read?
**A.** inconclusive: 29.1 µM [activator, single point]

**Q.** For N#Cc1ccccc1CSc1nnc(-c2ccncc2)o1, which Potency is on record?
**A.** inconclusive: 16.4 µM [activator, partial curve, poor fit]

**Q.** With Cc1cc(C)c2nc(NNC(=O)c3ccc(S(=O)(=O)N4CCc5ccccc5C4)cc3)sc2c1 as the compound, how does the Potency read?
**A.** inconclusive: 5.17 µM [activator, full curve, poor fit]

**Q.** Which Potency does the source give for Nn1c(SCc2ccccc2)nnc1-c1ccco1 here?
**A.** inconclusive: 23.1 µM [activator, partial curve, poor fit]

**Q.** With CC1=NOC(=O)/C1=C/c1ccc2c(c1)OCO2 as the compound, how does the Potency read?
**A.** inconclusive: 32.6 µM [activator, partial curve, poor fit]

**Q.** With O=C1NC2(CCCC2)Oc2ccccc21 as the compound, how does the Potency read?
**A.** inconclusive: 29.1 µM [activator, single point]

**Q.** Which “activity change, positive = activation” value does the source give for CCc1ccc(/C=C2\Oc3cc(OS(C)(=O)=O)ccc3C2=O)cc1 here?
**A.** inactive: 1.5%

**Q.** For CSc1nc(-c2ccccc2)ccc1C(N)=O, which Potency is on record?
**A.** inconclusive: 23.1 µM [activator, partial curve, poor fit]

**Q.** With Cc1cc2oc(C(=O)Nc3cccnc3)c(C)c2cc1C as the compound, how does the Potency read?
**A.** active: 13 µM

**Q.** With Cc1cc(C)nc(NC(=S)Nc2cccc(Cl)c2Cl)c1 as the compound, how does the Potency read?
**A.** inconclusive: 20.6 µM [activator, partial curve, poor fit]

**Q.** Which Potency does the source give for C/C(=N\NC(=O)c1ccc(Br)cc1)c1ccccc1 here?
**A.** inconclusive: 4.11 µM [activator, partial curve]

**Q.** Which Potency does the source give for Cc1ccc(CSc2nc3[nH]ncc3c(=O)[nH]2)cc1 here?
**A.** inconclusive: 8.2 µM [activator, partial curve]

**Q.** For CC(Oc1ccccc1)C(=O)N=C1SC2CS(=O)(=O)CC2N1c1ccc(F)cc1 (configuration not stated), which “activity change, positive = activation” value is on record?
**A.** inactive: 0.202%

**Q.** For O=C(CSc1nc(=O)n(CCN2CCOCC2)c2c1CCCC2)Nc1cccc([N+](=O)[O-])c1, which “activity change, positive = activation” value is on record?
**A.** inactive: 0.392%

**Q.** With Cc1csc(N/N=C/c2ccc(O)c([N+](=O)[O-])c2)n1 as the compound, how does the Potency read?
**A.** inconclusive: 35.5 µM [activator, partial curve, poor fit]

**Q.** Which Potency does the source give for Cc1cc(NC(=O)c2cccc(F)c2)ncc1NC(=O)c1ccco1 here?
**A.** active: 3.66 µM

**Q.** With Cc1cccc(OCC(=O)OCC(=O)NCC2CCCO2)c1C (configuration not stated) as the compound, how does the “activity change, positive = activation” value read?
**A.** inactive: 3.17%

**Q.** Which Potency does the source give for COc1ccc([N+](=O)[O-])cc1NC(=O)c1ccc(-n2nc(C)cc2C)cc1 here?
**A.** inconclusive: 29.1 µM [activator, partial curve, poor fit]

**Q.** Which Potency does the source give for CCCCCN1CC(O)=C(c2nc3ccccc3[nH]2)C1=N here?
**A.** inconclusive: 10.3 µM [activator, partial curve, poor fit]

**Q.** Which Potency does the source give for Nc1cc(Nc2ccc(Br)cc2)nc(N)n1 here?
**A.** inconclusive: 14.6 µM [activator, partial curve, poor fit]

**Q.** With CC(=O)Nc1cccc(-c2csc(Nc3cc(C)ccn3)n2)c1 as the compound, how does the “activity change, positive = activation” value read?
**A.** inactive: -13.6%

**Q.** With O=C(Nc1cccnc1Cl)c1cc(-c2ccc(O)cc2)on1 as the compound, how does the Potency read?
**A.** inconclusive: 0.58 µM [activator, partial curve]

**Q.** Which Potency does the source give for Cc1cccc(-c2noc(CCc3ccccc3)n2)c1 here?
**A.** inconclusive: 11.6 µM [activator, partial curve, poor fit]

**Q.** With Cc1ccc2nc(-c3ccc(NC(=O)CSc4ccccc4)cc3)[nH]c2c1 as the compound, how does the Potency read?
**A.** inconclusive: 16.4 µM [activator, partial curve]

**Q.** Which Potency does the source give for CCOC(=O)c1cnc(-c2ccccc2)nc1N here?
**A.** active: 3.26 µM

**Q.** For CCOc1ccc(NC(=O)Cn2sc3nc(C)cc(C)c3c2=O)cc1, which “activity change, positive = activation” value is on record?
**A.** inactive: -0.561%

**Q.** Which Potency does the source give for CCn1c(=O)cc(OCC(=O)Nc2ccc(C)cn2)c2ccccc21 here?
**A.** inconclusive: 20.6 µM [activator, partial curve, poor fit]

**Q.** With COc1ccc(-c2cc(=O)c3c(O)c(OC)c(O)cc3o2)cc1 as the compound, how does the Potency read?
**A.** active: 1.83 µM

**Q.** With Cc1nnc(SCC(=O)NC2CCCC(C)C2C)n1N (configuration not stated) as the compound, how does the “activity change, positive = activation” value read?
**A.** inactive: 0.482%

**Q.** For O=C(Nc1c(C(=O)N2CCN(c3ccccn3)CC2)oc2ccccc12)c1ccc([N+](=O)[O-])cc1, which activity change, positive = activation is on record?
**A.** inactive: -2.56% [at 9.26 µM]

**Q.** With COc1cc2c3nnc(-c4ccc(F)cc4)c-3cn(Cc3cccc(F)c3)c2cc1OC as the compound, how does the Potency read?
**A.** inconclusive: 25.9 µM [activator, partial curve, poor fit]

**Q.** For C/C(=N\NC(=O)c1n[nH]c2c1CCC2)c1ccco1, which Potency is on record?
**A.** inconclusive: 3.26 µM [activator, partial curve]

**Q.** With Nc1cccc(-c2nc3ccccc3s2)c1 as the compound, how does the Potency read?
**A.** active: 3.66 µM

**Q.** Which “activity change, positive = activation” value does the source give for O=C(c1cccc(Cl)c1)N(Cc1ccco1)C1CCS(=O)(=O)C1 (configuration not stated) here?
**A.** inactive: 3.6%

**Q.** For c1ccc(OCc2nc(-c3ccccc3)no2)cc1, which Potency is on record?
**A.** active: 14.6 µM

**Q.** For CC(C)(C)Nc1nc(Cl)nc(Nc2ccccc2)n1, which Potency is on record?
**A.** inconclusive: 10.3 µM [activator, partial curve]

**Q.** For O=C(Nc1ccccc1)Nc1cccc2cccnc12, which Potency is on record?
**A.** active: 6.31 µM

**Q.** With COc1ccc(N(C(=O)c2ccco2)C(C(=O)NC2CCCC2)c2cc(OC)c(OC)c(OC)c2)cc1 (configuration not stated) as the compound, how does the Potency read?
**A.** inconclusive: 25.1 µM [activator, single point]

**Q.** With COc1ccc(-c2csc(=Nc3ccccc3)n2CCO)cc1 as the compound, how does the Potency read?
**A.** inconclusive: 29.1 µM [activator, partial curve, poor fit]

**Q.** For O=C(CNC(=O)C1CCCCC1)Nc1ccc(Cl)cc1, which Potency is on record?
**A.** inconclusive: 16.4 µM [activator, partial curve]

**Q.** For O=C(NCCSc1ccccc1)c1ccccc1Cl, which Potency is on record?
**A.** active: 13 µM

**Q.** Which Potency does the source give for COc1cc2cc(C(=O)Nc3ccc4c(c3)OCCO4)[nH]c2cc1OC here?
**A.** inconclusive: 4.61 µM [activator, full curve]

**Q.** For FC(F)Oc1ccc(N=C2SCC3CCCCN23)cc1 (configuration not stated), which Potency is on record?
**A.** inconclusive: 5.8 µM [activator, partial curve, poor fit]

**Q.** For Cc1ccccc1OCC(=O)Nc1ccc(N2CCN(C(=O)c3ccco3)CC2)cc1, which “activity change, positive = activation” value is on record?
**A.** inactive: -20.8%

**Q.** With CCOc1cccc(C(=O)Nc2ccc(N(CC)CC)cc2)c1 as the compound, how does the Potency read?
**A.** inconclusive: 32.6 µM [activator, partial curve, poor fit]

**Q.** With CCC(C)Sc1ccc(-c2nc3ccc(Cl)cn3c2NCc2ccccc2)cc1 (configuration not stated) as the compound, how does the Potency read?
**A.** inconclusive: 14.6 µM [activator, partial curve, poor fit]

**Q.** For CCOC(=O)c1ccc2ncc(-c3ccccc3)nc2c1, which Potency is on record?
**A.** active: 10.3 µM

**Q.** For COc1ccc(-c2cc3ccc(OCC(C)=O)cc3oc2=O)cc1, which Potency is on record?
**A.** inconclusive: 2.31 µM [activator, full curve]

**Q.** With Cc1ccc(C)n1-c1ccc(N2CCOCC2)c(Br)c1 as the compound, how does the Potency read?
**A.** inconclusive: 14.6 µM [activator, partial curve, poor fit]

**Q.** Which Potency does the source give for Cc1cc(NC(=O)CSc2ccc(-c3ccc(Br)cc3)nn2)no1 here?
**A.** inconclusive: 23.1 µM [activator, single point]

**Q.** For COc1cc2nc(N(C)C)nc(N)c2cc1OC, which Potency is on record?
**A.** inconclusive: 29.1 µM [activator, partial curve, poor fit]

**Q.** Which Potency does the source give for O=C(NCCC(=O)N1CCCC1)c1ccccc1Cl here?
**A.** inconclusive: 16.4 µM [activator, partial curve, poor fit]

**Q.** For COc1ccc(N/C=C\C(=O)c2ccc(C)cc2)cc1OC, which Potency is on record?
**A.** inconclusive: 16.4 µM [activator, partial curve]

**Q.** Which Potency does the source give for COCCNC(=O)c1cc(-c2ccc(OC)c(OC)c2)on1 here?
**A.** inconclusive: 23.1 µM [activator, partial curve, poor fit]

**Q.** For CC(=O)Nc1sc(N/N=C\c2ccccc2)nc1-c1cccs1, which Potency is on record?
**A.** inconclusive: 14.6 µM [activator, partial curve]

**Q.** Which Potency does the source give for O=[N+]([O-])c1cc(/C=N\O)ccc1Oc1ccc(F)cc1 here?
**A.** inconclusive: 18.3 µM [activator, partial curve]

**Q.** With CCOC(=O)NC(=O)CSc1nc(C)cc(C(F)(F)F)c1C#N as the compound, how does the “activity change, positive = activation” value read?
**A.** inactive: 12.7%

**Q.** Which “activity change, positive = activation” value does the source give for CC(C)(C)c1cc(OC(=O)c2ccccc2F)ccc1O here?
**A.** inactive: -0.729%

**Q.** Which Potency does the source give for CC(C)c1ccc(Nc2ncccc2C#N)cc1 here?
**A.** inconclusive: 14.6 µM [activator, partial curve]

**Q.** Which Potency does the source give for COc1ccc(-c2csc(NC(=O)CSc3n[nH]c(C)n3)n2)cc1 here?
**A.** inconclusive: 2.91 µM [activator, full curve]

**Q.** Which “activity change, positive = activation” value does the source give for CCN(C[C@H]1N[C@@](C)(C(=O)OC)[C@H]2C(=O)N(C)C(=O)[C@@H]12)S(=O)(=O)c1ccc(C)cc1 here?
**A.** inactive: -0.176%
